Source: PubChem BioAssay AID485344 (National Center for Advancing Translational Sciences (NCATS), 2010)
The campaign covered roughly 340,000 compounds. About 6,900 (2%) were called active. Cut-off read from the data, not from the text of the source: active = inhibition above about 30%; inactive = below that, where a call was filed. Only a part is listed here, and it is no random draw. Where no call is shown, the source filed none.

biological target: D(2) dopamine receptor (Homo sapiens) (UniProt P14416); assay: HTS Assay for Allosteric Antagonists of the Human D2 Dopamine Receptor: Primary Screen for Antagonists; conditions: HEK293 TREx D2 cells, calcium flux, dopamine EC80; at 10 µM; stronger effect = higher value; note: 0% is about no effect
Chain of UniProt P14416 (P14416 whole entry, looked up): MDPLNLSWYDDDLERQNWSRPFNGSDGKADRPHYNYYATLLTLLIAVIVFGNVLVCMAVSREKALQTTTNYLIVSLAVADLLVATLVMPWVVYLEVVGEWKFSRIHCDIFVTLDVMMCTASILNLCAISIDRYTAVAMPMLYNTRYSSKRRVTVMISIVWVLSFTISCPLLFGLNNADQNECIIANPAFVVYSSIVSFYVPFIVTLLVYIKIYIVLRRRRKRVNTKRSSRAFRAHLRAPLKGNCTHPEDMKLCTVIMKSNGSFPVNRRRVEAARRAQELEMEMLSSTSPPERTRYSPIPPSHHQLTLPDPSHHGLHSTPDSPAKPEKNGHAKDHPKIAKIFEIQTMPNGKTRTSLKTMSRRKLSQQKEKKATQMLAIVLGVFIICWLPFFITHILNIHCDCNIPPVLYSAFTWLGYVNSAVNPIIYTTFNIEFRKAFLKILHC
Description: NIH Chemical Genomics Center [NCGC] NIH Molecular Libraries Probe Centers Network [MLPCN] MLPCN Grant: NS064831-01 Assay Submitter (PI): David Sibley Dopamine receptors (DARs) are involved in the etiology and/or therapy of a number of neuropsychiatric and endocrine disorders. For instance, all receptor-based antiparkinsonian drugs work via stimulating the D2 DAR subtype whereas all FDA-approved antipsychotic agents are antagonists of this receptor. […] There are three different types of allosteric modulators that we are seeking, two of which will stimulate or augment receptor signaling, allosteric agonists and potentiators, while the third, allosteric antagonists, will attenuate receptor signaling. The present primary screening assay measures compound antagonism after an EC80 addition of dopamine by tracking calcium flux in a […], inducible Hek293 Trex D2 cell line.
Freshly passaged cells are plated in 1536 well black, clear bottom plates at a density of 4000 cells/well in 3 ul of complete media containing 1x tetracycline inducer. After an overnight incubation at 30 C in 5% CO2, cells are loaded with 2 ul of the no wash Calcium Assay Kit (ABD Bioquest) and incubated at room temperature for 30 to 90 minutes. Agonist read: A 10 cycle (1 second/cycle) baseline measurement is taken and then the FDSS online 1536 pintool delivers 23 nl of compound library (as well as dopamine controls) to the plate. The plate is measured for kinetically at 1 cycle/sec for 180 seconds. Following the 180 second read, 1 ul of an EC80 (negative modulation assay) is delivered by an onboard pipette head. Measurements are taken kinetically for an additional 180 seconds.

Compared with `COc1ccc(CNC(=O)CCCN2C(=O)CSc3c2c(C)nn3-c2ccccc2)c(OC)c1`, `CCN(Cc1ccccc1)C(=O)Cn1c(=O)n(-c2ccc(OC)cc2OC)c(=O)c2c(C)c(C)sc21` is lower in inhibition: 7.36% for the first, 2.41% for the second.

Compared with `Cc1ccc(-c2[nH]c3ccccc3c2SCCNC(=O)c2ccc(S(=O)(=O)N(C)C)cc2)cc1`, `CCOc1ccc(CNC(=O)c2ccc(-c3nc(CSc4ccc(C)cc4)c(C)o3)cc2)cc1` is higher in inhibition: -11.1% for the first, -7.38% for the second.

First: COc1ccc(Cl)cc1NC(=O)CCS(=O)(=O)c1cccc2nonc12
Second: COc1ccccc1-c1cc(C(F)(F)F)nc(S(=O)(=O)CCCC(=O)Nc2cc(C)ccc2O)n1
The inhibition of the first is higher: 13% for the first, -4.52% for the second.

Compared with `COc1cccc(CSc2nc3n(n2)C(c2cccc(F)c2)C(C(=O)Nc2ccccc2C)=C(C)N3)c1` (configuration not stated), `Cc1oc2ccc(O)c(CN(C)Cc3ccccc3)c2c1C(=O)Nc1cccc(Cl)c1C` is lower in inhibition: 24.6% for the first, -0.977% for the second.

Compared with `CN(C)c1cc2c(cc1NS(=O)(=O)c1ccccc1)n(C)c(=O)n2C`, `COc1ccc(-c2nc3ccc(NS(=O)(=O)c4ccccc4)cc3o2)cc1` is higher in inhibition: -0.356% for the first, 6.47% for the second.

Going from `Cc1cccc(N2CCN(C(=O)c3ccc(CS(=O)c4cccc(Cl)c4)o3)CC2)c1C` (configuration not stated) to `Cc1ccc(Cl)cc1N1CCN(C(=O)Cn2ncc3c([nH]c4ccccc43)c2=O)CC1`, the inhibition rises from -4.61% to -0.235%.

Going from `COc1ccc(CN(C(=O)Nc2cccc(Cl)c2)c2ccccn2)cc1OC` to `COc1ccc(CCNc2nc3c(-c4cccc(F)c4)nnn3c3ccccc23)cc1OC`, the inhibition falls from 8.02% to 1.52%.

First: Cc1ccc(O)c(NC(=O)c2cc(-c3ccc4c(c3)OCO4)on2)c1
Second: Cc1ccc(Cn2ccnc2SCC(=O)Nc2ccc3c(c2)OCO3)cc1
The inhibition of the first is higher: 12.3% for the first, -1.64% for the second.

Compared with `Cc1c(CC(=O)N2CCCCC2)c(=O)oc2c(C)c3occ(C(C)(C)C)c3cc12`, `CCOC(=O)c1c(C)[nH]c(C)c1S(=O)(=O)N1CCC(C(=O)N2CCN(c3cc(C)ccc3C)CC2)CC1` is higher in inhibition: -12.8% for the first, -12.7% for the second.

Going from `CCCCOc1ccc(C(C)NC(=O)c2cccc(Nc3nc4ccccc4n4nnnc34)c2)cc1` (configuration not stated) to `COc1ccc(CNc2nc3ccccc3c3nc(-c4ccccc4)nn23)cc1`, the inhibition falls from 19.8% to 0.239%.

Compared with `COc1ccc(Cl)cc1NC(=O)C1CCN(c2nnc(C)c3c(C)n(-c4ccccc4)nc23)CC1`, `COc1ccc(CCNC(=O)C2CCN(c3nc4ccccc4nc3C(F)(F)F)CC2)c(OC)c1` is lower in inhibition: 9.92% for the first, -8.77% for the second.

Going from `Cc1ccc(CN2CCSc3ccc(C(=O)NCCc4ccccc4)cc32)cc1` to `Cc1ccc(-n2nc(CO)c(C(=O)NCCc3ccccc3)n2)cc1`, the inhibition rises from 4.8% to 12.3%.

Going from `O=c1n(Cc2cccc(F)c2)c2ccccc2c2nc(-c3ccccc3)nn12` to `COc1cc2c(cc1OC)n(Cc1ccc([N+](=O)[O-])cc1)c(=O)n1nc(-c3ccccc3)nc21`, the inhibition falls from 7.55% to -8.56%.

Going from `CN(C)C=NC(=O)c1cc2c(n(-c3ccccc3)c1=O)CC(C)(C)CC2=O` to `COC(=O)c1cc(S(=O)(=O)N2CCN(c3cccc(C)c3)C(C)C2)c[nH]1` (configuration not stated), the inhibition rises from 8.74% to 13.9%.

Going from `Cc1ccc(-n2c3nc(=O)[nH]c(=O)c-3cc3c(Cl)cccc32)cc1` to `Cc1ccc(Cn2cnc3c(oc4ccccc43)c2=O)cc1`, the inhibition rises from 8.52% to 11.3%.

First: Cc1ccc(C)c(NC(=O)N2CCN(C)c3ncccc32)c1
Second: Cc1ccc(OCC(=O)Nc2nc(-c3ccc(Br)cc3)ns2)cc1C
The inhibition of the first is lower: 5.49% for the first, 6.39% for the second.

Going from `CCOc1ccc(NC(=O)c2c(NC(=O)Cc3ccccc3)sc3c2CCCC3)cc1` to `CCOc1ccc(CNC(=O)c2cc3c(=O)n(Cc4cccs4)ccc3nc2C)cc1`, the inhibition rises from -11% to -9.41%.

Compared with `COc1ccc(Cl)cc1NC(=O)Cn1c(=O)n(Cc2ccco2)c(=O)c2ccc(C(=O)NC3CCCC3)cc21`, `Cc1ccc2c(=O)c(C(=O)c3ccc(F)cc3)cn(CC(=O)NC3CCCCC3)c2n1` is higher in inhibition: -10.1% for the first, -9.62% for the second.

Going from `COc1ccc2c(Sc3ccccc3)c(C(=O)NCc3ccc(OC(C)C)cc3)[nH]c2c1` to `COc1ccc(CCNC(=O)CCc2cn(Cc3ccc(C)cc3)c3ccccc23)cc1OC`, the inhibition falls from 28% to -2.65%.

Going from `COc1cccc(CNC(=O)c2cc3n(n2)CCCN(Cc2ccc(C)cc2)C3=O)c1OC` to `COc1cccc(-n2c(=O)c3sc4ccccc4c3n(CC(=O)Nc3ccccc3OC)c2=O)c1`, the inhibition falls from 7.49% to 2.34%.

Going from `CCOc1ccc(-n2c(SCC(=O)NCc3ccco3)nc3c([nH]c4ccccc43)c2=O)cc1` to `CCCCOc1nnc(-c2ccc(OCC)cc2)c2ccccc12`, the inhibition falls from 24% to 6.6%.

First: Cc1cccc(-c2nnc3n(CCc4ccccc4)c(=O)c4ccccc4n23)c1
Second: O=S(=O)(c1ccccc1)c1nnn2c1nc(Nc1ccccc1)c1cc(Cl)ccc12
The inhibition of the first is higher: 0.618% for the first, -7.92% for the second.

Going from `CCc1c(C)sc(NC(=O)c2cc(-c3ccc(OC)cc3)on2)c1C#N` to `COc1cccc(C(=O)NCC(=O)OCc2cc(=O)n3nc(C)sc3n2)c1`, the inhibition rises from 5.49% to 8.35%.

First: CC(=O)Nc1ccc(S(=O)(=O)Nc2ccc(-c3cn4c(C)csc4n3)cc2)cc1
Second: COc1ccc(-c2ccc(NS(=O)(=O)c3cccc(C)c3)cc2)nn1
The inhibition of the first is lower: -8.6% for the first, -3.93% for the second.

Compared with `CCCCn1c2ccccc2c2nnc(SCC(=O)Nc3ccc(NC(C)=O)cc3)nc21`, `Cc1ccc(NC(=O)CCCn2c3ccccc3c(=O)c3cc(C)ccc32)c(Br)c1` is lower in inhibition: 7.31% for the first, -6.49% for the second.

Going from `CCc1nc2nc(C)cc(Nc3ccc(Br)cc3F)n2n1` to `CCCc1cc(=O)n2[nH]c(NCc3ccc(CC)cc3)nc2n1`, the inhibition falls from 4.05% to -11%.

Going from `O=C(Nc1onc2c1CCCC2)c1ccc(Cl)cc1` to `O=C(CSc1nnc(-c2ccc(Cl)cc2)o1)N1CCc2ccccc21`, the inhibition falls from 20.9% to -1.69%.

First: Cc1ccccc1NC(=O)c1c2c(nc3ccccc13)C(=O)N(C1CCCCC1)C2
Second: Cc1ccccc1NC(=O)CSc1cn(CC(=O)N(C(C)C)C(C)C)c2ccccc12
The inhibition of the first is higher: 13.5% for the first, -4.01% for the second.

Going from `Cc1cc(C)cc(NC(=O)C(NS(=O)(=O)c2cccc3nsnc23)c2ccccc2)c1` (configuration not stated) to `Cc1ccc2oc(C(=O)Nc3ccc(S(=O)(=O)Nc4onc(C)c4C)cc3)cc(=O)c2c1`, the inhibition rises from -3.04% to -1.96%.

First: CCOC(=O)N1CCN(C(=O)c2ccc3c(c2)N(Cc2cc(C)ccc2C)C(=O)c2ccccc2S3=O)CC1 (configuration not stated)
Second: Cc1ccc(C)c(CN2C(=O)C3(c4ccccc42)N(c2ccc(Cl)cc2)C(=O)CS3(=O)=O)c1 (configuration not stated)
The inhibition of the first is higher: 4.78% for the first, 3.46% for the second.

Going from `CCC(Sc1nc2ccncc2[nH]1)C(=O)Nc1ccc(F)cc1` (configuration not stated) to `O=C(CSc1ncc(S(=O)(=O)c2ccc(Cl)cc2)c(=O)[nH]1)Nc1ccc2c(c1)OCCO2`, the inhibition falls from -12.9% to -17.5%.

Compared with `CCOc1ccc(N(C)C(=O)C2CCN(S(=O)(=O)c3ccc4c(c3)CCCN4C(C)=O)CC2)cc1`, `CC1CCN(S(=O)(=O)c2ccc3c(c2)N(CC(=O)NCCc2ccc(Cl)cc2)C(=O)CO3)CC1` is lower in inhibition: 2.58% for the first, -7.62% for the second.

First: CCCC(=O)Nc1nnc(SCc2cc(=O)c3ccc(C)cc3[nH]2)s1
Second: Cc1cccc(NC(=O)CSc2nc(-c3ccccc3Cl)nc3c2Cc2c(CO)cnc(C)c2O3)c1C
The inhibition of the first is lower: -20.2% for the first, 0.291% for the second.

Going from `CCCCNC(=O)C1=CC(c2ccc3c(c2)OCO3)=NS(=O)(=O)N1C` to `COc1ccc(OCC(=O)NC2CC(=O)N(c3ccc4c(c3)OCCO4)C2)cc1` (configuration not stated), the inhibition falls from 17.9% to -2.5%.

Compared with `O=C1SC(Nc2ccc(Cl)cc2)C(=O)N1Cc1ccccc1` (configuration not stated), `O=C1CS(=O)(=O)C2(C(=O)N(Cc3ccc(F)cc3)c3ccccc32)N1c1cccc(C(F)(F)F)c1` (configuration not stated) is higher in inhibition: -14.1% for the first, 4.32% for the second.

First: O=C1c2[nH]nc(-c3ccccc3)c2C(c2ccccc2)N1c1cccc(C(F)(F)F)c1 (configuration not stated)
Second: COc1cc2c(cc1OC)C(COc1ccc3c(C)cc(=O)oc3c1)N(C(=O)c1ccccc1F)CC2 (configuration not stated)
The inhibition of the first is lower: 5.2% for the first, 5.92% for the second.

Compared with `COCCNC(=O)C1CCN(c2nc3ccccc3nc2C(F)(F)F)CC1`, `CC1CCN(c2nc3c(S(=O)(=O)c4ccc(Cl)cc4)nnn3c3ccsc23)CC1` is lower in inhibition: 1.77% for the first, -1.38% for the second.

`CCOc1cccc(C2CC(=O)Nc3cc4c(cc32)OCCO4)c1` (configuration not stated) gave an inhibition of 19.7%.

In the case of `OC(COc1ccc2c(c1)OCO2)CN1CCN(c2ccccc2)CC1` (configuration not stated), the inhibition is reported as active: 81.5%.
In the case of `Cc1cccc(C)c1OCC(=O)OCC(=O)c1ccc2c(c1)NC(=O)CO2`, the inhibition is reported as active: 30.2%.
In the case of `O=C(C1CC1)N1CCc2cc(Br)cc(S(=O)(=O)NC3CCCCC3)c21`, the inhibition is reported as active: 39.6%.
With `COC(=O)[C@@]1(Cc2ccc(F)cc2)[C@H]2c3cc(C(=O)N4CCCC4)n(CCc4ccc(O)c(O)c4)c3C[C@H]2CN1C(=O)c1ccccc1` the inhibition was active: 96.3%.
`COc1cc(/C=C2\SC(=S)N(CCCCC(=O)O)C2=O)ccc1OS(=O)(=O)c1ccc(C)cc1` was tested, and the inhibition was active: 32.1%.
`O=C(CN1CCN(c2ccccc2F)CC1)Nc1ccc2c(c1)CCC2` was tested, and the inhibition was active: 69.4%.
In the case of `COc1cccc2sc3ccc(C#CC4(N)CCCCC4)cc3c(=O)c12`, the inhibition is reported as active: 31.4%.
With `Cc1ccc(Cn2cc(S(=O)(=O)c3ccc(C(C)C)cc3)c(=O)c3cc4c(cc32)OCO4)cc1` the inhibition was active: 36.1%.
With `COC(=O)Nc1ccc(S(=O)(=O)N2CCCC(C(=O)Nc3cccnc3)C2)cc1` (configuration not stated) the inhibition was active: 43.4%.
`FC(F)(F)c1ccc(C2[C@H]3CN(Cc4ccc(-c5ccccc5)cc4)[C@H](c4ccccc4)C34CC2(c2ccccc2)C4)cc1` (some centres not stated) was tested, and the inhibition was active: 35.4%.
In the case of `COc1ccc(C(=O)N/C(=C\c2ccc([N+](=O)[O-])cc2)C(=O)NC(CCSC)C(=O)O)cc1` (configuration not stated), the inhibition is reported as active: 34.8%.
For `CC1CCN(CCCCOc2ccc(C(C)(C)C)cc2)CC1`, the inhibition was active: 32.6%.
In the case of `Cc1cccc(NC(=S)NC2CC3CCCC(C2)N3Cc2ccccc2)c1C` (configuration not stated), the inhibition is reported as active: 105%.
In the case of `CCOC(=O)/C(=C\C=C1/Sc2cc(OCC)c(OCC)cc2N1CC)C(C)=O`, the inhibition is reported as active: 65.5%.
`CC(OCCN1CCCC1)(c1ccc(F)cc1)c1ccc(F)cc1` was tested, and the inhibition was active: 73.2%.
With `CCN(CC)c1ccc(/C=C2\C(=O)c3ccc(C(=O)O)cc3C2=O)cc1` the inhibition was active: 54.4%.
With `COc1ccc(OC)c(N2CC(O)(c3cccs3)[N+]3=C2SCCC3)c1` (configuration not stated) the inhibition was active: 40%.
